SMILES strings stand for the structures. Out of some 46,000 compounds screened, about 60 (0.1%) were called active. Another 3% or so got no clear call; they are omitted. The call rests on the fitted dose curve; in most records, active means well fitted inhibition curve with a large enough effect; inconclusive means small, poorly fitted or top-dose-only effect; inactive means no such curve, though single readings can be large or run the other way. The list shows a part of the results.

A short description of this test: Primary qHTS assay for Inhibitors of ovarian cancer metastasis using an organotypic tumor microenvironment (TME) model. Further: nearly all actives have a fitted effect of over 65% in size.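 On activity change, negative = inhibition: plate controls were DMSO wells for no effect and tomatine positive control wells for full effect.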 Particulars: SKOV3ip1-GFP adhesion/invasion on 3D omental model, fluorescence; series mostly up to 45.8 µM; activity change, negative = inhibition: at the top concentration. Put shortly:
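Primary human omental fibroblast/mesothelial 3D culture pre-formed 48 h. SKOV3ip1-GFP cells added with compounds (0.36-46 umol/L), incubated 2 h RT/16 h 37 C, fixed; GFP cells quantified at 488/509 nm.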
(In general: In qHTS, concentration-response curves come from the screen itself.)
Turning to `CC(=O)Nc1ccc(NC(=O)C2CCN(c3c(NC(C)=O)c(C)nn3-c3ccccc3)CC2)cc1`, the “activity change, negative = inhibition” value was inactive: -5.1%. Consider `Cc1ccc(C)c(N2CCN(C(=O)CCC(=O)Nc3ccc4nc(N5CCCCC5)cc(C)c4c3)CC2)c1`, for which the call was inactive. For the compound `Cc1ccc(OCCSc2nnc(-c3cccs3)o2)cc1Cl`, the “activity change, negative = inhibition” value was inactive: 2.08%. Still for that read-out and setting: the result for `O=C(NCc1ccc(Cl)cc1)c1ccc2c(Cl)c3c(nc2c1)CCCC3` reads inactive: -9.85%. With `Cc1ccc(CNc2nc(-c3ccco3)nn2S(C)(=O)=O)cc1`, the compound was classed as inactive. `COc1ccc2c(c1)c(=O)c(C(=O)c1ccc(C)c(C)c1)cn2CC(=O)Nc1ccc2c(c1)OCCO2`: the “activity change, negative = inhibition” value was inactive: 1.54%. The same measure, in the same setting: as for `CCOc1ccccc1CNC(=O)CCn1c(=O)c2cccn2c2ccc(F)cc21`, the figure is inactive: 0.607%. `COc1ccc(Cl)cc1-n1nnc(-c2nc(-c3ccccc3)no2)c1C`: the compound was classed as inactive. Consider `COc1ccc(-c2nc3cc(C(C)C)ccc3o2)cc1NC(=O)c1ccccc1[N+](=O)[O-]`, for which the “activity change, negative = inhibition” value is inactive: -10.4%.

As to `Cn1c(SCC(=O)Nc2ccccc2)nnc1-c1ccccc1`, the “activity change, negative = inhibition” value was inactive: 5.05%. Turning to `CCc1ccc(NC(=O)CSc2nc3ccccc3nc2Cc2ccc(C)cc2)cc1`, the compound was classed as inactive. Regarding `Cc1nnc(N2C(=O)c3oc4ccccc4c(=O)c3C2c2ccc(C(C)(C)C)cc2)s1` (stereo not drawn), the “activity change, negative = inhibition” value is inactive: -1.21%. Consider `COc1ccc(C(=O)CSc2nc(C)cc(C)c2C(=O)Nc2ccccc2C)cc1`, for which the “activity change, negative = inhibition” value was inactive: -6.66%. The same measure, in the same setting: the result for `COc1ccc(C)cc1NC(=O)CN1c2ccccc2S(=O)(=O)c2ccccc21` reads inactive: -3.62%; that for `COC(=O)c1ccc(NC(=O)CC2C(=O)N(c3cccc(OC)c3)C(=O)N2Cc2ccco2)cc1` (stereo not drawn), inactive: 5.39%; that for `COc1ccc(NC(=O)c2cccc(N3CCCS3(=O)=O)c2)cc1OC`, inactive: -5.11%. On to `COc1ccccc1N1CCN(C(=O)Cn2c(=O)n3nc(-c4ccc(C)cc4)nc3c3ccccc32)CC1`, for which the “activity change, negative = inhibition” value was inactive: 8.72%.

In the case of `Cc1nc(N2CCCC2)ncc1C(=O)NCc1cccc(Cl)c1`, the “activity change, negative = inhibition” value is inactive: -6.9%. With `COC(=O)c1ccc(NC(=O)CCS(=O)(=O)c2ccc(Br)s2)cc1`, the “activity change, negative = inhibition” value is inactive: 5.78%. Same read-out and setting: as for `Cc1ccc(NC(=O)CCOc2ccccc2)cc1`, the figure is inactive: 3.78%. Consider `Cc1cccc(OCCSc2nc3ccccc3n2CC(=O)N2CCOCC2)c1`, for which the outcome was inactive. Consider `COc1ccccc1CNC(=O)c1ccc(CS(=O)(=O)c2c(Cl)cccc2Cl)o1`, for which the “activity change, negative = inhibition” value was inactive: 7.63%.

On to `COCCNC(=O)c1ccc2c(=O)n(CCc3ccccc3)c(SCC(=O)CC(=O)OC)nc2c1`, for which the outcome was inactive.

Turning to `CCC(C)NC(=O)CSc1nc2cc3c(cc2c(=O)n1CCCC(=O)NCCc1ccc(OC)c(OC)c1)OCO3` (stereo not drawn), the compound was called inactive. With `COc1cccc(-c2nc(S(=O)(=O)c3ccccc3)c(N3CCCCC3)o2)c1`, the “activity change, negative = inhibition” value was inactive: 3.18%. As for `Cc1ccccc1OCCCCn1c(-c2ccc(Cl)cc2)nc2ccccc2c1=O`, the “activity change, negative = inhibition” value was inactive: -18.7%. Consider `CCOC(=O)c1c(C)[nH]c(C)c1S(=O)(=O)N(C)CC(=O)Nc1cc(Cl)ccc1C`, for which the result was inactive. As for `CCCn1c(=O)c2sccc2n2c(CCCC(=O)N3CCN(c4ccccc4OC)CC3)nnc12`, the “activity change, negative = inhibition” value was inactive: -0.84%. For the compound `CCOC(=O)c1ccc(N2C(=O)c3[nH]nc(-c4ccc(C)cc4)c3C2c2ccc(O)c(OCC)c2)cc1` (stereo not drawn), the “activity change, negative = inhibition” value is inactive: 0.306%. `CC1=C(C(=O)OCc2ccc(C)cc2)C(c2ccccc2F)CC(=O)N1` (stereo not drawn): the compound was called inactive. In the case of `NC1CCC(Nc2nc(Nc3ccc(C(=O)N4CCCCC4)cc3)c3ncn(-c4cccc(F)c4)c3n2)CC1` (stereo not drawn), the “activity change, negative = inhibition” value was inactive: -3.57%. Still for that read-out and setting: the result for `Cc1ccc2c(=O)cc(C(=O)Nc3sc4c(c3C(=O)NCc3ccco3)CCC4)oc2c1` reads inactive: -0.875%. Regarding `COc1ccc2c(c1)c(=O)c(C(=O)c1ccccc1)cn2CC(=O)Nc1ccc2c(c1)OCCO2`, the compound was classed as inactive. For `COc1cc(NC(=O)CCc2c(C)nn(-c3ccc(N4CCOCC4)nn3)c2C)cc(OC)c1OC`, the compound was called inactive. Same read-out and setting: as for `O=C(NCc1ccccc1F)C1CCN(c2nnc(-n3cccc3)s2)CC1`, the entry is “inactive”. Turning to `COc1ccccc1NC(=O)CSc1nnc(-c2ccccc2C)o1`, the “activity change, negative = inhibition” value is inactive: 2.5%.

Consider `CCOc1ccc(-c2nnc(SCC(=O)Nc3cccc(OC)c3)nc2-c2ccc(OCC)cc2)cc1`, for which the “activity change, negative = inhibition” value is inactive: -2.7%. Turning to `O=C(NCC(c1ccc(Cl)cc1)N1CCOCC1)c1ccccc1F` (stereo not drawn), the “activity change, negative = inhibition” value was inactive: -9.65%.

With `O=C(COc1ccc([N+](=O)[O-])cc1)Nc1nc2c(s1)CCCC2`, the compound was classed as inactive. For the compound `O=C1CCc2cc(OCCCCc3nnnn3C3CCCCC3)ccc2N1`, the “activity change, negative = inhibition” value is inactive: -12.9%.

As to `COc1ccc(C(=O)NCC(c2ccc3c(c2)OCO3)N2CCN(c3ccccc3F)CC2)cc1` (stereo not drawn), the “activity change, negative = inhibition” value is inactive: -4.69%.

Take `COc1cccc(C2CC(=O)Nc3c2c(=O)[nH]c2nc4ccccc4n32)c1` (stereo not drawn): the result was inactive. Still for that read-out and setting: the result for `Cc1ccccc1-c1nnn(CC(=O)Nc2sc3c(c2C#N)CCC(C(C)(C)C)C3)n1` (stereo not drawn) reads “inactive”. Take `O=C1CCCc2cc(S(=O)(=O)N3CCCC(C(=O)NCc4ccc(Cl)cc4)C3)ccc2N1` (stereo not drawn): the “activity change, negative = inhibition” value was inactive: -4.66%. On the same count and under the same terms, as for `COc1cc(OC)cc(-c2nc(-c3ccc4c(c3)[nH]c(=O)n4C)no2)c1`, the figure is inactive: 3.7%; as for `Cc1ccc2ncc(C(=O)Nc3ccc(OC(F)(F)F)cc3)c(=O)n2c1`, inactive: 1.48%. With `O=c1[nH]c2ccc(NCc3ccc(-c4ccc(Br)cc4)o3)cc2[nH]1`, the “activity change, negative = inhibition” value is inactive: -23.3%. `CCc1ccc(NC(=O)Cn2c(=O)n(CCCCC(=O)NCCc3ccc(Cl)cc3)c(=O)c3ccccc32)cc1`: the compound was classed as inactive.

Source of the values: PubChem BioAssay AID1963576 (National Center for Advancing Translational Sciences (NCATS), 2024).
